For 57 compounds, Potency results are on record in PubChem BioAssay AID360 (National Center for Advancing Translational Sciences (NCATS), 2006).

About 550 (1.1%) of roughly 48,000 compounds were called active. Roughly 4% stayed inconclusive and do not appear here. Cut-off read from the data, not from the text of the source: active = potency below about 15 µM; inconclusive = mostly about 16 µM to 33 µM; inactive = weaker than that. The list shows a part of the results.
Potency is the fitted concentration of half-maximal effect.

The target in this test is Lysosomal acid glucosylceramidase (Homo sapiens) (UniProt P04062). Nature of the test: Glucocerebrosidase.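 Note: the screen sought inhibitors.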 The settings on record: purified enzyme, resorufin glucoside fluorescence (screen aimed at inhibitors), 20 min; series mostly up to 77 µM. In short, it runs like this: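 Normal human glucocerebrosidase (0.2 nM final) was assayed with resorufin β-D-glucopyranoside (30 uM final) in 50mM citric acid/KH2PO4, 10mM sodium taurocholate, 0.01% tween-20, pH 5.9. Compounds were titrated; fluorescence (Ex 548, Em 600) read after 20 min at RT.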
Sequence of UniProt P04062 (P04062 whole entry, looked up): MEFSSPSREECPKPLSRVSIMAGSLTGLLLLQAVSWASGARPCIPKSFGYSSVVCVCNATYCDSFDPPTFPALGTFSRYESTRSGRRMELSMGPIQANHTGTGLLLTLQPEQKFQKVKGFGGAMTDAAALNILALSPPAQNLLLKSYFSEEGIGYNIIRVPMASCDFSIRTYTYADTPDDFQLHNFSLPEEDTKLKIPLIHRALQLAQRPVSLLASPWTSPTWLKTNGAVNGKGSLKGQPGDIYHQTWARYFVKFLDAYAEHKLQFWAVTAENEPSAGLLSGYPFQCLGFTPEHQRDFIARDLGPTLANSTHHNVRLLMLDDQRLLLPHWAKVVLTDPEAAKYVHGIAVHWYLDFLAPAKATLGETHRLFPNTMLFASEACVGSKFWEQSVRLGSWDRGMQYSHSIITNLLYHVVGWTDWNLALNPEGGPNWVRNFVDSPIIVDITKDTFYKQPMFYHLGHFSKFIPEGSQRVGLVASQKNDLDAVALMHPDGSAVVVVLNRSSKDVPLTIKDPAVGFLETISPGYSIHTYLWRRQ
For `COCCNC(=O)c1cn(C)c(=O)c2cc(OC)c(OC)cc12`, the Potency was inactive: > 76.9 µM. The figure for `CCCn1nc(C(=O)NCc2ccccn2)c2ccccc2c1=O` is inactive: > 76.9 µM; for `COc1ccc(C(=O)Nc2oc(-c3ccccc3)c(-c3ccccc3)c2C#N)cc1OC` it is inactive: > 76.9 µM. Consider `O=C(NCc1ccco1)C(c1ccc(F)cc1)N(CC1CCCO1)C(=O)Cn1nnc2ccccc21` (configuration not stated), for which the Potency was inactive: > 76.9 µM. The figure for `O=C(CN1C(=O)C2(OCCO2)c2ccccc21)c1ccc(F)cc1` is inactive: > 76.9 µM; for `CN(CC(=O)NCCN1CCN(Cc2ccccc2)CC1)S(=O)(=O)c1cccc2nsnc12` it is inactive: > 76.9 µM; for `COC(=O)c1ccc(CSc2nnc(CNC(=O)c3ccccc3F)o2)o1` it is inactive: > 76.9 µM.

Consider `CCOC(=O)c1c(N)nn(C(=O)C(C)(C)C)c1-c1ccccc1`, for which the Potency was inactive: > 76.9 µM. The figure for `C=CCOC(=O)C1=C(C)Nc2nc3ccccc3n2C1c1ccncc1` (configuration not stated) is inactive: > 76.9 µM; for `COc1ccc(S(=O)(=O)N(C)c2ccc(C(=O)N3CCC(C(N)=O)CC3)cc2)cc1` it is inactive: > 76.9 µM.

Take `COc1cc(C2C(C#N)=C(N)Oc3cc(C)oc(=O)c32)ccc1OC(=O)N1CCOCC1` (configuration not stated): the Potency was inactive: > 76.9 µM. In the case of `COC(=O)c1cc(COC(=O)c2ccc3ccccc3n2)oc1C` it was inactive: > 76.9 µM; in that of `O=C(O)c1cnc2ccccc2n1`, inactive: > 76.9 µM.

As for `O=C(COC(=O)Cc1cn2ccsc2n1)Nc1nc2ccccc2s1`, the Potency was inactive: > 76.9 µM. The figure for `CC1S/C(=C(\C#N)C(=O)NCc2ccco2)N(c2ccc(F)cc2)C1=O` (configuration not stated) is inactive: > 76.9 µM; for `CCOC(=O)Cc1csc(NC(=O)CSc2nnnn2-c2ccc(CC)cc2)n1` it is inactive: > 76.9 µM. The figure for `CC(=O)Nc1ccccc1NC(=O)CC(C)(C)C` is inactive: > 76.9 µM. In the case of `CN(C)c1nc2c(c(=O)n(C)c(=O)n2C)n1Cc1ccccc1` it was inactive: > 76.9 µM; in that of `CCOC(=O)Cc1[nH]nc2c1C(C1C=CCCC1)C(C#N)=C(N)O2` (configuration not stated), inactive: > 76.9 µM; in that of `CCCCn1c(SCc2cccnc2)nc2c1c(=O)n(C)c(=O)n2C`, inactive: > 76.9 µM. In the case of `Cc1nn(C)c(C)c1S(=O)(=O)N1CCC(C(=O)NC2CCCCC2)CC1`, the Potency was inactive: > 76.9 µM. In the case of `Cc1cc(NC(=O)CCC(=O)N(c2ccccc2)C(C(=O)NCC2CCCO2)c2cccnc2)no1` (configuration not stated) it was inactive: > 76.9 µM; in that of `c1ccc(NC2=Nc3ccccc3CS2)cc1`, inactive: > 76.9 µM; in that of `COc1cccc(NC(=O)COc2ccccc2C(N)=O)c1`, inactive: > 76.9 µM. The figure for `Cc1ccccc1-c1nc(CN2CCCC(C(=O)NCCCN3CCOCC3)C2)c(C)o1` (configuration not stated) is inactive: > 76.9 µM; for `Cc1ccc(S(=O)(=O)N2CCN(C(=O)CSc3nc4ccccc4c(=O)[nH]3)CC2)cc1` it is inactive: > 76.9 µM; for `O=C(CSc1nnnn1C1CCCCC1)NCCc1ccccc1` it is inactive: > 76.9 µM. For `Cc1cc(NC(c2cccnc2)c2ccc3cccnc3c2O)no1` (configuration not stated), the Potency is inactive: > 76.9 µM. In the case of `CCC(C)NC(=O)CCS(=O)(=O)c1ccc(Br)s1` (configuration not stated) it was inactive: > 76.9 µM; in that of `CCOc1ccc2nc(N3CCCN(C(=O)Nc4ccccc4C)CC3)c(C#N)cc2c1`, inactive: > 76.9 µM; in that of `CCCC1=C(C(=O)OCC)C(c2ccc(NC(C)=O)cc2)NC(=O)N1` (configuration not stated), “inactive”. Turning to `Fc1ccccc1OCCCN1CCOCC1`, the Potency is inactive: > 76.9 µM. The figure for `COCCN1C(=O)N(c2cccc(C)c2)C(=O)C1CC(=O)Nc1ccc(F)cc1` (configuration not stated) is inactive: > 76.9 µM; for `Cc1nn2c(-c3cccc(NC(=O)CSc4nc5ccccc5o4)c3)nnc2c2ccccc12` it is inactive: > 76.9 µM. The figure for `CC1(C)CC(=O)C=C(Nc2ccc(C(=O)O)cc2)C1` is inactive: > 76.9 µM. The figure for `CCOCCCNC(=O)CCNC(=O)c1cc(OC)c(OC)c(OC)c1` is inactive: > 76.9 µM; for `CN(c1ccc(Cl)cc1)c1cc(=O)n(C)c2ccccc12` it is inactive: > 76.9 µM. On to `O=C(CCSc1ccccc1)Nc1ccc(S(=O)(=O)N2CCOCC2)cc1`, for which the Potency was inactive: > 76.9 µM.

As for `O=C(Nc1nccs1)c1ccc(Br)o1`, the Potency was inactive: > 76.9 µM. For `CCN(CC)C(=O)C1CC(=O)N(c2ccc(F)c(Cl)c2)C1` (configuration not stated), the Potency is inactive: > 76.9 µM. The figure for `Cc1c(NC(=O)CSc2nnc(-c3cccc(Cl)c3)o2)c(=O)n(-c2ccccc2)n1C` is inactive: > 76.9 µM; for `Cc1cccc(NC(=O)C2CCN(c3nccc(C)n3)CC2)c1` it is inactive: > 76.9 µM. In the case of `O=C(CCCn1c(=O)[nH]c2cc(Cl)ccc2c1=O)NCCCN1CCCC1=O` it was inactive: > 76.9 µM; in that of `CCCn1c(=NC(=O)c2ccc3c(c2)OCO3)c(C#N)cc2c(=O)n3cccc(C)c3nc21`, inactive: > 76.9 µM; in that of `CCc1nc(N2CCOCC2)c(C#N)c2c1COC(C)(C)C2`, inactive: > 76.9 µM. As for `O=C(CCCc1nc(-c2ccccc2Cl)no1)NC1CCCCC1`, the Potency is inactive: > 76.9 µM. For `CCc1c(O)nc(SCC(=O)Nc2ccccc2)n(-c2ccccc2)c1=O`, the Potency is inactive: > 76.9 µM. On to `CCc1nc(C)cn1S(=O)(=O)c1cc(Br)ccc1OC`, for which the Potency was inactive: > 76.9 µM.

On to `Cc1cc(C)n(CCn2nc(C)cc2C)n1`, for which the Potency was inactive: > 76.9 µM. `Cc1cc(C)c2c(=O)[nH]c(=O)n(Cc3ccccc3)c2n1`: the Potency is inactive: > 76.9 µM. With `Cc1cc(-n2c(=O)c(C#N)cc3c(=O)n4cccc(C)c4nc32)no1`, the Potency is inactive: > 76.9 µM. The figure for `O=C1Cn2c(nc3ccccc32)N1c1ccccc1F` is inactive: > 76.9 µM; for `CCN(CC)CCn1cnc2c([nH]c3cccc(OC)c32)c1=O` it is inactive: > 76.9 µM; for `O=C(NC1CCCC1)c1ccc(COCC(F)(F)C(F)F)o1` it is inactive: > 76.9 µM. Turning to `O=C(c1cccs1)N1CCN(C/C=C/c2ccccc2)CC1`, the Potency is inactive: > 76.9 µM. The figure for `CCN(CC)CCCN1C(=O)C(=O)/C(=C(/O)c2cc(C)ccc2C)C1c1cccnc1` (configuration not stated) is inactive: > 76.9 µM; for `CSc1nnc(-c2cccs2)n1-c1ccccc1` it is inactive: > 76.9 µM.
